Measurements from PMC12136788.
Some of the results follow.

B1: chr17:88413838:88413839:-_ENSMUSG00000005371_ENSMUST00000130379|mus_hu|FALSE|FALSE (ssRNA)
RNA: GGGAGUUCUACAGUCCGACGAUCUACACAAGCUGCUCUACAAAGAUCCUGUUCCAGCAAGUAAGAGAAGAUUUUUAGAACCACUUCAUCUGGCAGUUUCUCCUGAAGAUACUGUUCAGCAGGUGCUGCUGAUAGAUCUUGUGACAACAGAGGAUUGAGCAUCA
B2: chr17:62496016:62496017:-_ENSG00000108654_ENST00000581693|hu_mus|motif|central (ssRNA)
RNA: GGGAGUUCUACAGUCCGACGAUCCUGAUAACACACAAUAUAAAGAGCAAUUAUGAAAAACAGACAUUUACAUAUACUUCGGAAGUCUUAUUGAGAAUACCCUGUUGGCAUGGGAUAGCCAAUCAUAGGCGCAGCAGCUGCGGUCAACAGAGGAUUGAGCAUCA
B3: 53529767_53529887_1599_CDS_ENSG00000100523_ENST00000323669|human|control|control (ssRNA)
RNA: GGGAGUUCUACAGUCCGACGAUCAACUGGAUUCCAGCCAGUCAUUAUGUCAUAAGUAAUUACACAUCCCAAGGAAUGUGAUACUAUUGAGACUUUACCCCCUUUUUCUUCAAAGUCUGGAUUCCGAGAACAGAAAAGGGAAUACAACAGAGGAUUGAGCAUCA
B4: 139368980_139369100_3101_CDS_ENSG00000148396_ENST00000313050|human|control|control (ssRNA)
RNA: GGGAGUUCUACAGUCCGACGAUCUUGUCUGGGAUGACUGGCAACACUUUGCUGAGAAGCGAGGCUGUCAGAAUGGGACGGGUUGUACACGUUUACAGGAUUUUCCAAAGUCCUGCUUAAGGUAAAGUCUAGGGCUCCGUAAGUCAACAGAGGAUUGAGCAUCA
B5: chr14:56483160:56483161:+_ENSMUSG00000075592_ENSMUST00000168479|mus_hu|FALSE|FALSE (ssRNA)
RNA: GGGAGUUCUACAGUCCGACGAUCAGCCUGUAGUUGGGGUGUAGAGGUCAAGGGUGGCCCUAUCUGUGGGAGAUCCGAGCUAACUUUGUCUUUUACAUCUGAGCUCCCAGGGACCACCAAUAAACUCGUAACUUUUGGGGAAAUCAACAGAGGAUUGAGCAUCA
B6: 80037470_80040787_425_CDS_ENSMUSG00000017686_ENSMUST00000092857|mouse|control|control (ssRNA)
RNA: GGGAGUUCUACAGUCCGACGAUCUGUUACCUUAUCAAUAGAAUGUUUGUUGUUAACAGCAUAAACUAUGCAGAUAACAUUAGCCUGUGAUAUUUCUUGAUGAAGUUGUUCAUCACUCUGUUCUGCUUCUGAAUAAUCGACAAUCAACAGAGGAUUGAGCAUCA
B7: 83126347_83126467_1584_3pUTR_ENSMUSG00000058881_ENSMUST00000071233|mouse|control|control (ssRNA)
RNA: GGGAGUUCUACAGUCCGACGAUCGGGGGAGCUUGGGUAGCCGGAGCAUCCUGUUCACGCUUGCGUUUUUCCUGGCUCACCAGUAUAUACUCACGCUUGUCUUUGUCAAAGGCUACAUCCCCUGCCAGCGCCUCGUCCCAGGUCCAACAGAGGAUUGAGCAUCA
B8: 21200532_21200737_1338_CDS_ENSMUSG00000032178_ENSMUST00000067646|mouse|control|control (ssRNA)
RNA: GGGAGUUCUACAGUCCGACGAUCAGACUUCUCCUCCCCAUCCUCUUCCAUAGGGCGUUUCAUGGGUGUGAUAGCAUAGGUGGUGCUGGGAGGAAUUUGAACAGUGUAGUCCACCGGGUUCUCGUUCUUUGGUUUCUUGGGCAUCAACAGAGGAUUGAGCAUCA
B9: chr20:44444512:44444513:+_ENSG00000175063_ENST00000356455|hu_hu|motif|central (ssRNA)
RNA: GGGAGUUCUACAGUCCGACGAUCCAGGUACUUCUUAAAAGCUGUGGGGUUUUUCCAGAGCUCGGCAGCAUGUGUGUUCAAGGGACGGUCAAUGUUGGGUUCUCCUAGAAGGCUCUGGAUGGAGAGCAGAAUGGUCCUGACAUCCAACAGAGGAUUGAGCAUCA
B10: chr4:52499564:52499565:+_ENSMUSG00000028312_ENSMUST00000117280|mus_hu|FALSE|FALSE (ssRNA)
RNA: GGGAGUUCUACAGUCCGACGAUCUGUAUAUAAACAAAUUAGUUAUCUCAAGUCCUUAAAAGUUUACAUUUAAAAAAACAGGUCAAGAUGAAGAAAUAACUUUGUAGUUUAAACUUCCACAUGUGCUCCUUUGGGUGGUUUUGCCAACAGAGGAUUGAGCAUCA
B11: chr2:27445747:27445748:+_ENSG00000084774_ENST00000264705|hu_mus|FALSE|FALSE (ssRNA)
RNA: GGGAGUUCUACAGUCCGACGAUCAGAGGCAGGGUCACCGGGUCCAUUACUUAGGAAGAGACCGUCAUAUUUCUGACUGUCUAACUCGUGGUCCCAGGGUACCACGGUAACUUCAGCCCCAAGCUGGCAGAGACAUCGGAUCUGCAACAGAGGAUUGAGCAUCA
B12: 134314381_134319624_517_CDS_ENSG00000130723_ENST00000357304|human|control|control (ssRNA)
RNA: GGGAGUUCUACAGUCCGACGAUCCGUCGGAAAUUCCUCGGGAGAGAAGGAUAACAGUCGGCUUGAGCCCCUUAAACCACCUUCGUGUCCUACUGGCUUUCCAUUCAGCUGUGCCCAUGACUUUGGUCCACCUGGCACUGAAUUCAACAGAGGAUUGAGCAUCA
B13: chr13:14287670:14287671:+_ENSMUSG00000039219_ENSMUST00000039538|mus_hu|FALSE|FALSE (ssRNA)
RNA: GGGAGUUCUACAGUCCGACGAUCAGCAGCACUUUCUCUCUCUUUCUUCUUUAAACGCUUUCUCCUCCGAUCAAUGGAAGCUACUUCAGAUUUUAAUGACAGAUAAUGUUUUCUGAUUUCUUGAAGUUUUUCUUGAAGAAUUGUCAACAGAGGAUUGAGCAUCA
B14: chr5:31194218:31194219:+_ENSMUSG00000029165_ENSMUST00000031057|mus_hu|FALSE|FALSE (ssRNA)
RNA: GGGAGUUCUACAGUCCGACGAUCCAGAUCUACACGAAGUCCAUCCAGAGAAUAGCAAAGGAGCUCCCGAUGGUAAUAGAUGGUAUCCAGGGGGCUGCUAUGGGUAGGGUGGUUCUCCGGAAAGCGCUGGUCUAGCUGGUUUAGCAACAGAGGAUUGAGCAUCA
B15: chr7:133248287:133248288:-_ENSMUSG00000000131_ENSMUST00000171861|mus_hu|FALSE|FALSE (ssRNA)
RNA: GGGAGUUCUACAGUCCGACGAUCCAUCUUGAAAUUCCGCCCCAGCACACUUUUCUGGUUGGCAUCCACACCAUCACAGCUGGUCAGGAACUCUGGGAGGAAGGCGGCAAAGAAGCCAUCAAAGUCGACUGAGGCCAUGUUGUACAACAGAGGAUUGAGCAUCA
B16: chr8:95500983:95500984:-_ENSG00000164944_ENST00000437199|hu_hu|hu_hu_hu_mus_True|88_88 (ssRNA)
RNA: GGGAGUUCUACAGUCCGACGAUCAGAACACAUCUAUCGAGUAAAGGGAGCGUACAUACGGCCUCUACCACUGCCUCCACUAACAAACUUUCCUCUCGAGCCUCCACUGCCGCUAUUUGUACUAGCCCAGGACGGUCCCAGGCCCAACAGAGGAUUGAGCAUCA
B17: chr5:128448638:128448639:+_ENSG00000066583_ENST00000173527|hu_mus|hu_hu_hu_mus_False|18_18 (ssRNA)
RNA: GGGAGUUCUACAGUCCGACGAUCGGCACUCGCCUUAAUUAGGUUCUGAAUUUCCUUGAACUUCGGGUGGUCUUUGUCAGCCACCAGCUGUAGGAGGACAGCCUCACUAGUGGUCACUAUGAUCCCGGUGCGGGCAAGACGCUCCAACAGAGGAUUGAGCAUCA
B18: 112745619_112745739_867_CDS_ENSMUSG00000046441_ENSMUST00000056972|mouse|control|control (ssRNA)
RNA: GGGAGUUCUACAGUCCGACGAUCGACAGCUUCGCAGUAAUGCAAAGACGACACUAAGGCUUCCUGUUCACCUGGGUUUCCUUGGCAAUCGAAGCUGCCAUCAGCCGUGACCAAGUGAAUGGGAGACAUGCCGCUGAGGAAGUCCAACAGAGGAUUGAGCAUCA
B19: 11914_12034_1215_CDS_ENSG00000198886_ENST00000361381|human|control|control (ssRNA)
RNA: GGGAGUUCUACAGUCCGACGAUCUUGUUAAUGUGGUGGGUGAGUGAGCCCCAUUGUGUUGUGGUAAAUAUGUAGAGGGAGUAUAGGGCUGUGACUAGUAUGUUGAGUCCUGUAAGUAGGAGAGUGAUAUUUGAUCAGGAGAACCAACAGAGGAUUGAGCAUCA
B20: chr8:117878989:117878990:-_ENSG00000164754_ENST00000297338|hu_hu|hu_hu_hu_mus_True|1_38 (ssRNA)
RNA: GGGAGUUCUACAGUCCGACGAUCCCAGAGGCCCUCGUUUACUGAGGACAAAAUGUGCGUAGAACAUUUUUCUUAUUUGCUAUGAAAUAAGAAGAAAACCUUGCUCUGGCGGGGAGCCGGGAGGGGUGGGUGGCCCGGGGGAGGCAACAGAGGAUUGAGCAUCA
B21: 44656479_44656599_2094_CDS_ENSMUSG00000002028_ENSMUST00000002095|mouse|control|control (ssRNA)
RNA: GGGAGUUCUACAGUCCGACGAUCAUUACUAGGCAAGGUCACAGACUCAAAUAUUCUAGAGUGUGCCUCACUUGGAGUAAAUCUGGGAGCUCUCAGAAUGGGGCUCCUUUUAUGAAUAUCAAACCUUGUUCCAGAAUGGAGUGGCAACAGAGGAUUGAGCAUCA
B22: chr9:57762402:57762403:+_ENSMUSG00000055720_ENSMUST00000163329|mus_hu|FALSE|FALSE (ssRNA)
RNA: GGGAGUUCUACAGUCCGACGAUCCCAGGACUUUCGCAGAACAUGGACAGUGGACCCAGGUUGAAUGCCAUAGAAGUCAAGUGUCUGGUCAUCUUUUAGCUUCCGACCACAGUAGAUCAGAUCAAUCAGCUCAGGGUCUGGAACCAACAGAGGAUUGAGCAUCA

Each binder was assayed against T1, UNK ZnF1-3 (human, UniProt Q9C0B0 31-174) (assay: nsRBNS (natural sequence RNA bind-n-seq); RBNS binding buffer (assumed for nsRBNS): 25 mM Tris pH 7.5, 150 mM KCl, 3 mM MgCl2, 0.01% Triton X-100, 500 ug/ml BSA, 20 U/ml SUPERase-In, 4 C; UNK is unkempt and MSI1 is Musashi-1; names of the RNAs are library labels; protein concentration not given here; high values mean tight binding).
T1 sequence: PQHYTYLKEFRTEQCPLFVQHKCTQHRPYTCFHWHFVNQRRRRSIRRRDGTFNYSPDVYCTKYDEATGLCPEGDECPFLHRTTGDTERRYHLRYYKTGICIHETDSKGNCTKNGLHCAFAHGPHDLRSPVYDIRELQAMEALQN
Binder B1 has a binding signal of 0.713 enrichment R.
With B2 the binding signal was 1.33 enrichment R.
In the case of B3, the binding signal is reported as 0.583 enrichment R.
In the case of B4, the binding signal is reported as 0.876 enrichment R.
Binder B5 has a binding signal of 1.07 enrichment R.
With B6 the binding signal was 0.352 enrichment R.
B7 was tested, and the binding signal was 0.71 enrichment R.
Work on B8 yielded a binding signal of 0.976 enrichment R.
Binder B9 has a binding signal of 0.869 enrichment R.
For B10, the binding signal was 1.19 enrichment R.
Binder B11 has a binding signal of 1.21 enrichment R.
Work on B12 yielded a binding signal of 1.02 enrichment R.
B13 gave a binding signal of 1.38 enrichment R.
In the case of B14, the binding signal is reported as 1 enrichment R.
Work on B15 yielded a binding signal of 1.62 enrichment R.
B16 gave a binding signal of 1.57 enrichment R.
Work on B17 yielded a binding signal of 0.54 enrichment R.
Binder B18 has a binding signal of 0.556 enrichment R.
For B19, the binding signal was 1.79 enrichment R.
B20 was tested, and the binding signal was 2.3 enrichment R.
B21 was tested, and the binding signal was 0.731 enrichment R.
With B22 the binding signal was 1.24 enrichment R.
